# Test results reported in ChEMBL document CHEMBL4888484, “Replenishing the malaria drug discovery pipeline: Screening and hit evaluation of the MMV Hit Generation Library 1 (HGL1) against asexual blood stage Plasmodium falciparum ,using a nano luciferase reporter read-out” (2022).
# The whole screen tested about 4,800 compounds, of which about 420 (8.8%) showed an effect of 50% or more. Some of the results follow.
# Test system: Plasmodium falciparum
# Assay: Confirmatory screen in NF54 nanoGlo assay, in single point, at 2uM, 72h
# Format: functional, Erythrocyte
# Conditions: timepoint 72 hour
row,Compound,% Inhibition
1,Clc1ccc(C2CC(c3cccnc3)Nc3ncnn32)cc1 (centres undefined),-9%
2,Cc1ccc(C(O)(c2ccc(C)c(C)c2)[C@H]2C[N@]3CC[C@@H]2CC3)cc1C,6%
3,COc1ccc(-c2csc(-n3cc(C4=CCN(CCO)CC4)cn3)n2)cc1,30%
4,Cc1ccc(C2CC(c3cccnc3)Nc3ncnn32)cc1 (centres undefined),-4%
5,C=CC1CN2CCC1CC2C12Nc3ccccc3C1(O)CCO2 (centres undefined),-11%
6,CCN(CC)C(=O)Oc1cc2nnnn2nc1-c1ccccc1,3%
7,CCC(CC)c1cc([C@H]2CN3CC[C@H]2C[C@@H]3CO)nc(-c2ccncc2)n1,26%
8,CCc1nsc(N2CCC3CCC(C2)N3C)n1 (centres undefined),-12%
9,CCn1cnc2c(N3C4CCC3C(C(=O)OC(C)(C)C)C4)ncnc21 (centres undefined),-4%
10,CCN(CC)CCC1C(=O)N(c2ccccc2)C(=O)N(c2ccccc2)C1=O,4%
11,O=C(c1ccccc1)c1cc(Cl)ccc1NC(=O)[C@H]1CC(=O)N(c2ccc(F)cc2)C1,85%
12,CCOc1ccccc1NC(=O)c1cn(Cc2ccc(N)cc2)cn1,5%
13,COCCn1ccc(C(=O)N[C@H]2CCc3nc(C(C)C)nn3C2)n1,-4%
14,O=C1CO[C@H]2CCN(Cc3cn4ccc(Br)cc4n3)C[C@@H]2N1,1%
15,CN(C)C(=O)Oc1cccc2ccc(CN3CCC(N4CCN(c5ccc(C(F)(F)F)cn5)CC4)CC3)nc12,15%
16,CC(C)(C)NC(=O)C1CC2CCCCC2CN1 (centres undefined),5%
17,Cc1c(C(=O)N2CCC3(CC2)OCCO3)oc2ccc3c(c12)[C@@H](O)CC1(CCCCC1)O3,4%
18,CCC(CC)c1cc([C@H]2CN3CC[C@H]2C[C@@H]3CNS(=O)(=O)Cc2ccccc2)nc(-c2ccncc2)n1,63%
19,C[C@@H](Cc1ccc(O)cc1)NCc1cc[nH]n1,3%
20,CCN1CCC[C@H](NC(C2CCC2)C2CCC2)C1,-3%
21,CN1CCC2(CC1)CNc1ccccc12,-5%
22,COC(=O)c1cc(OC)cc2[nH]c(=O)oc12,-13%

row,Compound,% Inhibition
1,C[C@@H]1N=C(c2ccccc2)c2cc(Cl)ccc2N(CC(=O)Nc2cccc(C(F)(F)F)c2)C1=O,4%
2,O=c1[nH]c2cc(NS(=O)(=O)c3ccc(C4CCCCC4)cc3)ccc2o1,-17%
3,O=C(NCc1ccc(Br)cn1)[C@H]1NCC12CCCC2,7%
4,COc1cc(OCC(=O)N2CCN([C@@H](C)Cc3ccccc3)CC2)cc(OC)c1OC,8%
5,O=C1N(c2ccccc2)C(=O)C2(Cc3cc(C(F)(F)F)ccc3N3CCC(c4ccccc4)CC32)C(=O)N1c1ccccc1 (centres undefined),4%
6,CCCC(=O)N(C1=CC2CCC(C1)N2C)c1ccccc1 (centres undefined),1%
7,COC(=O)C(O)(c1ccc2c(c1)C(O)(C(F)(F)F)C(=O)N2C(C)C)C(F)(F)F (centres undefined),8%
8,COC(=O)CNc1cc(C)c([C@@](O)(C(=O)OC)C(F)(F)F)cc1OC,8%
9,CN(C)[C@@H](Cn1c(=O)[nH]c2ccccc2c1=O)c1ccco1,-7%
10,C[N+]12CCC(CC1)[C@@H](C(O)(c1cccc(Cl)c1)c1cccc(Cl)c1)C2,24%
11,Cn1cc(Br)cc1C(=O)C(Cl)(Cl)Cl,-16%
12,O=c1c2cc(Cl)ccc2nc(-c2cccnc2)n1-c1ccc(Br)cc1,0%
13,c1ccc2c(CCNC3(c4nnnn4C4CCCCC4)CCCCC3)c[nH]c2c1,-4%
14,O=C1NC(=O)C2(Cc3cc(C(F)(F)F)ccc3N3CCCCC32)C(=O)N1c1ccccc1 (centres undefined),-15%
15,Nc1ccc(N2CCN3CCC[C@H]3C2)cc1,8%
16,CCn1nccc1CNCCc1ccccc1,4%
17,Cc1ccc2c(c1)CCCN2C(=O)CN1CC=C(c2cnn(C)c2)CC1,43%
18,Cc1nn(C)cc1/C=C1\CC2C3CCC4CC(O)CCC4(C)C3CCC2(C)C1O (centres undefined),-2%
19,CCC(CC)c1cc([C@H]2CN3CC[C@H]2C[C@@H]3CNC(=O)Cc2cccs2)nc(-c2ccncc2)n1,3%
20,CC(=O)N1N=C(c2cccnc2)O[C@H]1c1ccc(F)cc1,-10%
21,CNc1snc(C)c1C(=O)N1CCC(C(=O)OC)(c2ccccc2)CC1,-2%
22,O=S(=O)(NC12CCCC1CNC2)c1onc(C2CC2)c1Cl (centres undefined),95%

row,Compound,% Inhibition
1,O=C(Cc1cnc2ccccn12)N1C[C@H]2CC[C@@H](C1)N(Cc1ccccn1)C2,20%
2,CC[C@H](O)c1c[nH]c(C(=O)C(Cl)(Cl)Cl)c1,-12%
3,FC1(F)C[C@@H](COc2cccnc2)N(C2CCCCC2)C1,3%
4,CN1CCc2nc3ccc(F)cc3c(C(N)=O)c2C1,-10%
5,O=C1CCN(C(=O)c2ccc(F)c(Cl)c2)CC1,8%
6,CC(C)c1nc(CC(=O)N2CCN(Cc3nnc4n3CCCCC4)CC2)cs1,-12%
7,CN1CC[C@]2(CCN(c3ccnc4ccsc34)C2)C1,99%
8,CC(C)N1C(=O)NC(=O)C2(Cc3ccccc3N3CCN(Cc4ccccc4)CC32)C1=O (centres undefined),38%
9,CN1CCC(N(C)C2CCCCC2N(C)C(=O)Cc2ccc(O)cc2)CC1 (centres undefined),-1%
10,Cn1nc(OC(=O)Nc2ccccc2)cc1C(F)(F)F,6%
11,CC1CNCC(C)N1Cc1csc(C2CC2)n1 (centres undefined),-8%
12,O=C(NC[C@H]1C[C@@H]2CC[N@]1C[C@@H]2CN1CCC(Cc2ccccc2)CC1)Nc1ccccc1,17%
13,Clc1ccc(C2CC(c3cccnc3)Nc3nnnn32)cc1 (centres undefined),-10%
14,CCOc1ccccc1N1C(=O)NC(=O)[C@@]2(Cc3cc(C)ccc3N(C)C2)C1=O,-10%
15,CN1CC2(CN(Cc3cnc4ccc(Cl)cn34)C2)OC1=O,-4%
16,O[C@@]1(Cc2ccccc2)CN2CCC1CC2,7%
17,C=CCN(C)C[C@H]1CN2CC[C@H]1C[C@@H]2CNC(=O)Nc1ccc(OC(F)(F)F)cc1,27%
18,Cc1ccc(CN2CC(=O)N(C)CC23CCCCC3)nc1,-9%
19,CCC1(CC)C(=O)N(CN2CCCC2=O)C(=O)N(CN2CCCC2=O)C1=O,-17%
20,C=CCCC(CN1C[C@H]2CC=CC[C@H]2C1)Oc1ncc(F)cn1 (some centres undefined),77%
